The campaign covered roughly 220,000 compounds. About 5,700 (2.6%) were called active. The shares of active, inactive and inconclusive entries below differ from those in the screen. The call rests on the fitted dose curve; in most records, active means well fitted inhibition curve with a large enough effect; inconclusive means small, poorly fitted or top-dose-only effect; inactive means no such curve, though single readings can be large or run the other way. Potencies beside an inconclusive call are fits to weak or partial responses and may not hold up.
What follows are compounds tested against Lysine-specific demethylase 5B (Homo sapiens) (UniProt Q9UGL1) (assay: Primary screen for KDM5B Histone Demethylases FDH-coupled qHTS). Settings: FDH-coupled NADH fluorescence (FDH is formaldehyde dehydrogenase); activity change, negative = inhibition: at 57.7 µM (top of the series) unless noted.
UniProt Q9UGL1, sequence (Q9UGL1 whole entry, looked up): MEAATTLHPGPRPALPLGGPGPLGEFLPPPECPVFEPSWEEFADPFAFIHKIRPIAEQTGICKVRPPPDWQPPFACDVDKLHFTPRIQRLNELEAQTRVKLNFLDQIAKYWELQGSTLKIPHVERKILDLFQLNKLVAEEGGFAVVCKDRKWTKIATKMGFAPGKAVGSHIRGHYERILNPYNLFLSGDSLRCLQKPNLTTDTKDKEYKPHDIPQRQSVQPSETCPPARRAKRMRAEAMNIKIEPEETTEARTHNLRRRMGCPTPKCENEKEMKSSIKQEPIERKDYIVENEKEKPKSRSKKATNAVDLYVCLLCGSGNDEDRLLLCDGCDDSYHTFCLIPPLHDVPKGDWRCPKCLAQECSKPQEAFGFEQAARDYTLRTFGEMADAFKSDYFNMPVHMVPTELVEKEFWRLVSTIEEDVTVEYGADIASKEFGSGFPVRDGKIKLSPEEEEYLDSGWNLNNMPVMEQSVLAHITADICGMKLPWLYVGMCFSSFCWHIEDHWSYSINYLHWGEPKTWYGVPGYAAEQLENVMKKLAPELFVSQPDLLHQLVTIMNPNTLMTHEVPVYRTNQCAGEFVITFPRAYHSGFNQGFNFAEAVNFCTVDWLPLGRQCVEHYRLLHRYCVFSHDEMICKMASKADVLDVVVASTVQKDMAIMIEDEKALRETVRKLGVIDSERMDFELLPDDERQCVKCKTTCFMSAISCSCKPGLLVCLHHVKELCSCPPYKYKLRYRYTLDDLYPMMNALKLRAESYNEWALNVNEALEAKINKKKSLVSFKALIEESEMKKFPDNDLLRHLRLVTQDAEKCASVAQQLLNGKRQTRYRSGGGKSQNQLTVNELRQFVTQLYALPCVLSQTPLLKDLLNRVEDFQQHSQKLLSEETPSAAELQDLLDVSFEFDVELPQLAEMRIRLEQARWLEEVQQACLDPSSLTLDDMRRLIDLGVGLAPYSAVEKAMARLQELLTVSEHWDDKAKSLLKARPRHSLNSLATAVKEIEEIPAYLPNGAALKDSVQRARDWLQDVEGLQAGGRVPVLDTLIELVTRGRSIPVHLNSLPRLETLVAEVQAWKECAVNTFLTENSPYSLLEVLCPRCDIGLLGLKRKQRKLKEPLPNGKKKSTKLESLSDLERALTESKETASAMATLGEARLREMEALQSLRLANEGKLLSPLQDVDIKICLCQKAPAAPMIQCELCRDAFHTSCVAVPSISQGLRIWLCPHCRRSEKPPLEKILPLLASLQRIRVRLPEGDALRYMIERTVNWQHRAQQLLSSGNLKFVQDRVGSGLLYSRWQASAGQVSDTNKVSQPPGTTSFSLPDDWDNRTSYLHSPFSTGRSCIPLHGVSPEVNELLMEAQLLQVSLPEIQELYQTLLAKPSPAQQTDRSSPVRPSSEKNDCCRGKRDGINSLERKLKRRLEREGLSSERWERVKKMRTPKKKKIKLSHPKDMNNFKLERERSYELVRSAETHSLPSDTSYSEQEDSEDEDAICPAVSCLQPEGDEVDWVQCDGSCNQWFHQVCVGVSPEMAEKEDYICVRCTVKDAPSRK
Outline: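 Here, H3K4me3 peptide (12.5 µM in substrate mix) is demethylated by KDM5BΔAP, 200 nM final, after 10 min compound exposure. Formaldehyde product is coupled through FDH (0.25 U/mL in mix) to NADH fluorescence; 30-min ΔRFU feeds dose-response curves.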
Further: nearly all actives have a fitted effect of over 70% in size.
Potency means the concentration at half of the fitted maximal effect; tags describe the fitted curve by direction and shape.
Wherever activity change, negative = inhibition is given: 0% is about no effect.

Compound	activity change, negative = inhibition	Potency
CCC(C)NS(=O)(=O)c1cccc2cc(C)cnc12 (configuration not stated)	inactive: 9.1%	–
Cc1nc2c(c(-c3ccc(O)cc3)n1)CN(C(=O)C(C)(C)C)CCC2	inactive: -7.63% [at 86.2 µM]	–
COc1ccc2oc(-c3ccc(C)c(NC(=O)C(C)C)c3)nc2c1	–	inconclusive: 1.78 µM [inhibitor, full curve, poor fit]
CCOc1ccccc1NC(=O)Cn1c(=O)n(CCCCC(=O)NCCCOC)c(=O)c2ccccc21	–	inconclusive: 1.41 µM [inhibitor, partial curve, poor fit]
O=C(c1cccc(O)c1)N1CC(CNc2ccccc2)C2(C1)CN(c1ccccc1)C2 (configuration not stated)	–	inconclusive: 35.5 µM [inhibitor, partial curve, poor fit]
CCCn1nc(C)c(-c2cc(C(=O)N3CCc4c(nc5cc(-c6ccccc6)[nH]n5c4=O)C3)[nH]n2)c1C	–	inconclusive: 28.2 µM [inhibitor, partial curve, poor fit]
CNC(=O)CCn1ncc2cc(OCc3ccccc3-c3cc(F)ccc3OC(C)C)ccc21	inactive: -18.2%	–
CCCc1noc(-c2ccn3c(CNC(=O)c4ccc(C)cc4C)nnc3c2)n1	inactive: -1980%	–
O=C1c2c(nc(COc3ccccc3)n2Cc2ccccc2)NCCN1CC1CC1	inactive: -19.9% [at 86.2 µM]	–
CCOc1ccc(-c2nc(C#N)c(N3CCN(Cc4ccccc4)CC3)o2)cc1	–	inconclusive: 22.4 µM [inhibitor, partial curve, poor fit]
c1ccc(CN2Cc3[nH]cnc3C[C@H]2c2nc(-c3ccccn3)no2)cc1	–	inconclusive: 39.8 µM [inhibitor, partial curve, poor fit]
CCOC(=O)c1c(C)oc2ccc(N(C(=O)c3ccncc3)S(=O)(=O)c3ccc(F)cc3)cc12	–	inconclusive: 17.8 µM [inhibitor, partial curve, poor fit]
COc1ccc(NC(=O)c2ccc3c(c2)C2(CCCN(C)C2)CN3C)cc1 (configuration not stated)	inactive: 1.51% [at 86.2 µM]	–
COc1ccc(OC)c(CCNC(=O)c2cc3cccc4c3n2CCS4)c1	–	inconclusive: 35.5 µM [inhibitor, partial curve, poor fit]
N#Cc1ccc(CN2C[C@@H]3OCC(=O)N(CC(N)=O)[C@@H]3C2)cc1	–	active: 35.5 µM
O=C(Nc1ccc2ccccc2n1)c1ccc(S(=O)(=O)N2CCCCC2)cc1	–	inconclusive: 39.8 µM [inhibitor, single point]
COc1ccc(Cn2c(C3CCN(C(=O)c4ccc(F)c(Cl)c4)CC3)n[nH]c2=O)cc1	inactive: 29.2%	–
CN(Cc1ccc(F)cc1)c1ccc2ncc(Nc3cccc(O)c3)n2n1	–	inconclusive: 31.6 µM [inhibitor, partial curve, poor fit]
C=CCOc1cccc(C2C(C(=O)c3ccco3)=C(O)C(=O)N2Cc2ccco2)c1 (configuration not stated)	–	inconclusive: 20 µM [inhibitor, partial curve, poor fit]
O=[N+]([O-])c1cccc(-n2nc(-c3ccccc3)c3cnc4ccccc4c32)c1	inactive: 26.5%	–
Cn1c(=O)n(Cc2nc(-c3ccccc3)no2)c(=O)c2ccccc21	inactive: 8.52%	–

Compound	activity change, negative = inhibition	Potency
CCOc1ccc(CN(C)C(=O)NC(c2ccc3c(c2)OCCCO3)C(C)C)cc1 (configuration not stated)	inactive: 10.3%	–
CCN(CC)C(=O)c1sc2c(c1C)c(=O)n(Cc1ccccc1)c(=O)n2CC(=O)Nc1ccc(OC)cc1	inactive: 2.22%	–
Nc1nccnc1C(=O)NCC1Cc2ccccc2O1 (configuration not stated)	–	inconclusive: 28.2 µM [inhibitor, partial curve, poor fit]
COc1ccc(-c2nc(-c3ccccc3)nc3c2CN([S+](=O)([O-])c2cccs2)CC3)cc1	–	inconclusive: 35.5 µM [inhibitor, partial curve, poor fit]
CC(=O)Nc1ccc2[nH]cc(C(C(=O)O)N3CCN(c4nc5c(cc4C#N)CCCC5)CC3)c2c1 (configuration not stated)	–	inconclusive: 28.2 µM [inhibitor, partial curve, poor fit]
O=[N+]([O-])c1ccc(N/N=C/c2cccc(O)c2O)c(S(=O)(=O)N2CCOCC2)c1	–	inconclusive: 8.91 µM [inhibitor, partial curve, poor fit]
FC(F)(F)c1ccc(O[C@H]2COCCN(Cc3cccnc3)C2)nc1	–	inconclusive: 35.5 µM [inhibitor, partial curve, poor fit]
CCc1cc(=O)oc2cc(C)cc(OC(C)C(=O)NC3CC(C)(C)NC(C)(C)C3)c12 (configuration not stated)	–	inconclusive: 14.1 µM [inhibitor, partial curve, poor fit]
COc1cccc(CN2CCn3c(nnc3[C@@H]3C[C@@H](O)CN3C)C2)c1OC	–	inconclusive: 22.4 µM [inhibitor, partial curve]
COc1ccc(-n2ncc(C(=O)NCc3ccc4c(c3)OCO4)c2C2CCN(C(=O)OC(C)(C)C)CC2)cc1	–	inconclusive: 12.6 µM [inhibitor, partial curve, poor fit]
CN1[C@@H](CCC(=O)NCc2ccccc2)CNC(=O)[C@@H]2[C@H]1CCN2Cc1cccc(OC(F)(F)F)c1	–	inconclusive: 25.1 µM [inhibitor, partial curve, poor fit]
COC(=O)[C@@H]1Cc2ncn(C)c2CN1S(=O)(=O)c1cccs1	–	inconclusive: 28.2 µM [inhibitor, partial curve]
COc1ccc(-c2cn3nc(SCC(=O)Nc4ccccc4F)ccc3n2)cc1	–	inconclusive: 28.2 µM [inhibitor, partial curve, poor fit]
Cc1occc1C(=O)Nc1nc(CC(=O)Nc2ccccc2)cs1	inactive: -17.1%	–
CNS(=O)(=O)c1cn(CC(=O)N2CCN(c3ccc(Cl)cc3)CC2)cc1S(=O)(=O)NC	–	inconclusive: 15.8 µM [inhibitor, partial curve, poor fit]
CNC(=O)[C@H]1C[C@H](Oc2cccnc2)CN1C(=O)NCCc1ccccc1	–	inconclusive: 31.6 µM [inhibitor, partial curve, poor fit]
O=c1ccc2cc(S(=O)(=O)NCc3ccc(Cl)cc3)ccc2[nH]1	–	inconclusive: 17.8 µM [inhibitor, single point]
CN1CCC(Oc2ncccc2NC(=O)c2ccncc2)C1 (configuration not stated)	–	inconclusive: 12.6 µM [inhibitor, partial curve]
CCc1ccc(-c2nc(CSCC(=O)NCc3cccs3)c(C)o2)cc1	–	inconclusive: 20 µM [inhibitor, single point]
COc1ccc(NC(=O)Cc2c(C)c3ccc(OC)c(C)c3oc2=O)cc1OC	inactive: -16.7%	–
CC(Oc1ccccc1)C(=O)NCc1ccnc(N2CCCC2)c1 (configuration not stated)	–	inconclusive: 31.6 µM [inhibitor, partial curve, poor fit]

Compound	activity change, negative = inhibition	Potency
Cc1ccccc1OCc1ccc(-c2nc(C#N)c(N3CCCCC3)o2)o1	–	inconclusive: 28.2 µM [inhibitor, partial curve, poor fit]
CCCCNC(=O)c1cnn2c(C)c(Cc3c(C)cc(C)cc3C)c(C)nc12	–	inconclusive: 5.62 µM [inhibitor, partial curve, poor fit]
CCOC(=O)c1cc2c(=O)n3ccccc3nc2n(Cc2ccco2)c1=NC(=O)c1ccc(OC)cc1	–	inconclusive: 5.01 µM [inhibitor, partial curve, poor fit]
CSc1ccc(CNC(=O)c2ccc3c(c2)N(C)C(=O)C2CCCCN32)cc1 (configuration not stated)	–	inconclusive: 22.4 µM [inhibitor, partial curve, poor fit]
CSc1ccc(/C=C/C(=O)c2cccc(Br)c2)cc1	–	inconclusive: 31.6 µM [inhibitor, single point]
COc1ccc(CC(=O)NC(C)C(=O)N2CCN(c3ccccn3)CC2)cc1Cl (configuration not stated)	–	inconclusive: 28.2 µM [inhibitor, single point]
CCC(C)(C)NC(=O)/C(=C/c1ccccc1)c1ccccc1	inactive: 1.81%	–
COc1cccc(CNC(=O)c2cc(-c3ccncc3)cn2C)c1	inactive: -23.2%	–
O=C(CSc1nc2ccccc2s1)NCCc1ccc(F)cc1	inactive: 18%	–
Cc1cccc(C(C(=O)N2CCN(S(=O)(=O)N(C)C)CC2)N(C)C)c1 (configuration not stated)	inactive: -7.54%	–
Cn1cccc1CN1CCC2(C1)C(=NC1CCCC1)NC(=O)N2c1cc(F)cc(F)c1 (configuration not stated)	–	inconclusive: 56.2 µM [inhibitor, partial curve, poor fit]
CC(C)(C)c1ccc(-c2cc(C[C@H]3CNCC[C@H]3CC(=O)N3CCN(c4ccccn4)CC3)no2)cc1	inactive: -13.6%	–
CC1=CCCC(C)(C)C1/C=C/C(C)=N\NC(=S)Nc1cccnc1 (configuration not stated)	–	inconclusive: 25.1 µM [inhibitor, partial curve, poor fit]
COC(=O)c1cnn(-c2ccc(C(=O)Nc3ccc(Br)cc3F)cc2)c1N	inactive: 8.06%	–
CC(Sc1nc(C(F)(F)F)nc2ccccc12)C(=O)Nc1ccc(F)cc1 (configuration not stated)	inactive: -8.13%	–
Cc1nn(S(=O)(=O)c2ccc(C(C)C)cc2)c(C)c1S(=O)(=O)N1CCCCC1	–	inconclusive: 25.1 µM [inhibitor, single point]
CCc1noc(-c2ccn3c(CNC(=O)Cc4ccc(Cl)cc4)nnc3c2)n1	–	inconclusive: 3.16 µM [inhibitor, partial curve, poor fit]
COc1cc(C(=O)Nc2ccc3oc(=O)ccc3c2)ccc1OC(F)F	–	inconclusive: 35.5 µM [inhibitor, partial curve, poor fit]
COc1ccc(C)cc1NC(=O)C(=O)c1cn(CC(=O)N2CCOCC2)c2ccccc12	–	inconclusive: 31.6 µM [inhibitor, single point]
COCCN1CC(CO)C2(CCN(C3CCN(C(C)=O)CC3)CC2)C1 (configuration not stated)	–	inconclusive: 22.4 µM [inhibitor, partial curve, poor fit]

From PubChem BioAssay AID1347165 (National Center for Advancing Translational Sciences (NCATS), 2019)
